The record followed here is the RNAGym collection of RNA variant scans (doi:10.7554/elife.90254).

The source gives no read counts; variants with many changes may rest on few reads.

First the molecules themselves.
B1: LINE1-full (parent)
chain: UACGUAGGUGGUUUUCCCCUGAUAGUGCUAAGGGGGCCUGGAAGUUUGGACUGGGCAGAGCUCAACACAGCGUGGCAAAGUGGCUGUGGCUAGACUGCCUCUCUGGAUUCCUCGUCACUCAGCAGGGCAUCUCUGAGAGAAAUGCC

In this data set the parent is B1. The data set is described as follows: self-cleavage, relative activity (ratio to wild type); higher = more cleavage; in vitro, sequencing; the parent is a self-cleaving ribozyme.
As to A43G A78U U143C, the self-cleavage amounted to 2.21.

As for U15C A31U U143C, the self-cleavage is 0.54. The same measure for U100C A117U U143A: 2.35; for U23C U39C U102A: 0.35; for U14C U15A U87C A141G: 0.48.

As for A57G A64U A140G, the self-cleavage was determined as 0.15. The same measure for U5C U39A G53A U119C: 0.83; for G11U A24G A129G: 1.18; for U12G U23C U132A: 0. As to U13C U26A G127A, the self-cleavage was 0.48. The same measure for U13C A57G U62C A92G: 0; for U12G U14C C120U: 1.42; for C76U U102C A121C: 2.63. The same measure for A6G A79G U108A U115A A121U A141G: 1.67; for C28U A59U A141G: 0.52.

U9C U13C A140G: the self-cleavage is 0.9. As to U26A A43G A141G, the self-cleavage is 0.82. The same measure for U12C U26C G74C: 1.37; for G10A U47A U100C U108C: 1.75; for G49A A59G C61U G75A A117G U134A: 0.02.

For U15C G72A U130C, the self-cleavage is 0.98. Regarding U15C A30C A57G, the self-cleavage amounted to 0.72. The same measure for U13C A50G A57U C113U A142G: 0.12; for G4A U85C A94G U102A A121U: 0.44. The same measure for A64U A117G U132G: 0.71; for U14A U46C A77U A121U: 1.21. G32A U52C C84G U134C: the self-cleavage was 0.16. The same measure for G10U A30U U52C: 1.5. The same measure for C17A U46C A141G: 1.72. The same measure for U14C A50G U132C: 0.98; for U73C U81C U91C G114A: 0.74.

For G60A U62C U108C, the self-cleavage is 0.04. The same measure for A31C U102C U134C: 2; for A22U A65C U100C: 0.03; for U14C U45C A59G U87C: 0.92.

As to G11A U45C G54C, the self-cleavage came out at 0.82. The same measure for A22C A31U U47A C56G A57C: 0. The same measure for U12C G34A A69U U100C: 0.1; for A24G U39A U119C: 1.93; for U20C A64G A136G: 0.36.

In the case of G83A U87A U96C U100C, the self-cleavage came out at 0.1. As to U5C U52C A92G A142G, the self-cleavage came out at 0.22. The same measure for U20G A22U A124G: 1.87; for G11A A69G G75A A94G U100C A141G: 0; for G4C G27A U46A: 1.1. The same measure for A57U U87A A140G A142U: 0.07. The same measure for A31U A79G U115C: 1.08; for A2G U13C G75U: 0.78; for C3U U9C A24G A43G G89A: 0.26. On to U15C U47G U112A, for which the self-cleavage amounted to 1.62. The same measure for U20C G36U A59G U108C: 0.02; for A57U C63A A138G: 0.04; for G70C A107U G139A: 0.18. The same measure for A2G U13C A50G: 1.97; for U85C U87A A140U: 0; for A31G U47A G105U: 1.19. The same measure for U12G U81C G126A: 1.53; for A2G U15C G35A A64G U87C U130C: 0; for U9C A57U C131A: 0.2.

For the variant U15C C71U U108G U134C, the self-cleavage was found to be 0.84. The same measure for G34A U39A A50G U104C A140G: 1.67; for U9A U26C U115A: 1.69; for U87A U112C A124G: 0. Regarding A42G A69U U112C, the self-cleavage is 0.05. The same measure for A59G U104A A124G: 0.04; for G70A U130C A140G: 0.17; for G21A A78G U81C: 1.76.

As for U1C A57G U104C, the self-cleavage was found to be 0.66. For the variant U26C U87A A92G, the self-cleavage stood at 0.14. The same measure for U14A G53A A65G U108C: 0. The same measure for A57G U87A U96C: 0.25; for A79G G86A U102C A136U: 0.13. The same measure for U81C U130C U143C: 0.98.

U29A A64U U119A: the self-cleavage turned out to be 0.56. With A22U A141G A142G, the self-cleavage stood at 1.87.

Consider G27A C38U A64C A121G, for which the self-cleavage was 0.15. The same measure for A2U G86A A121G: 0.12. The same measure for U1C U14A U52A A92G U100C: 0.

As for A30G G74U U96G, the self-cleavage came to 0. As to A2G G8U U9A G72A A77G A140G, the self-cleavage is 0.88. The same measure for U14A U29C A77U: 0.88. For the variant A22G A57G U73A A107G, the self-cleavage amounted to 0.

Turning to U13C A57G A59G, the self-cleavage stood at 0.12.

Regarding U45A G53U U73C A124G, the self-cleavage came to 0.86.

As to U20A A31G U109C U143C, the self-cleavage worked out at 1.72. As for A69U U91C U108C, the self-cleavage amounted to 0. The same measure for U104A A121U A124G: 0.44; for A31U A107G U112C: 1.77. The same measure for U62C G97U U130C: 0.08. The same measure for A59G G60A A94G A117U A141G U143C: 0.07; for A65G U102A U134C: 0. Take U12C U45C A67G C101U: the self-cleavage stood at 1.21. The same measure for U102C U109C A136U: 1.12; for A2G U20A U87A U112A: 0.24; for A22G A64G U81A U115C: 0.54.

As for U47C A64G U73A G126U, the self-cleavage was 0.28.

Regarding U13A U102A A141G, the self-cleavage turned out to be 0.54. The same measure for U13C U73C A142G: 0.41. On to A2G U12C A129G, for which the self-cleavage was 0.87. The same measure for U9G A42G C56U U104C G135A: 0.33. The same measure for A6G U9A U26A A69G U87C U143A: 0.

In the case of U23C A64G U85C, the self-cleavage was 0.22. The same measure for U26C A31U A50G U52A U115C: 0; for G10A G34C A67G C76U U104A U134C: 1.06. The same measure for A22G A50G U115A A140U: 1.32; for U26C A43G A77U A107G: 1.39; for U29A A43G U52A A117G: 0.98. The same measure for A6G A107G U119C: 1.12; for U12C A42G A94G U100A A136G: 1.15; for A59G U100C A107G: 0.38.

Turning to U130C U132A A142G, the self-cleavage was found to be 1.3. As to U1C A43G A65G A117G, the self-cleavage came to 0. Turning to U73A U109C A138G A141G U143A, the self-cleavage came out at 0.41. The same measure for A6U G40A A42G A121U: 1.28; for U26C A50U A64G: 0.23. The same measure for U1G A30G A65U A107G: 0.6.

For G41A U46C U119C, the self-cleavage was determined as 1.51. The same measure for U1C U14C C51U U100C C131A: 0.63; for A64G C71U A140G: 0.13. The same measure for C3U U12C A24G A141G: 0.49.

As to A65U A67G U108C, the self-cleavage came to 0.25. The same measure for A31U A67U U85A A92G U134C: 0.14; for U52C A94G U102C: 0; for G35A A69G U119C: 0.08. Turning to U1C U13C G35U U52A C63U, the self-cleavage was determined as 0.36. The same measure for G10A A22G A57G U91C: 0; for C19U C101A U115A A136G: 1.76; for C38U U115C A124C A141G: 1.67. The same measure for C19U A64U A65G: 0; for G27A U87C U108C: 0; for U62C A79G U87A: 0.08. The same measure for U1C G32A U62C: 0.06; for G10U A22G A65G: 0.26; for U14C U96C A121U: 0.24.

Consider U15C U47C U109C A117U, for which the self-cleavage stood at 0.4. The same measure for U26A U52G A65G: 0.1; for U15C G126U A138G: 1.34; for U91A U104A A142G: 0.56.

In the case of U15A A78U A94G G105A, the self-cleavage turned out to be 0.12. Consider U39C A43G G48A U109C A140G, for which the self-cleavage amounted to 0.74. The same measure for U14A A24G G75A A92U C133U: 0.45. Turning to U1A U47A U87C A117G A129G U132A, the self-cleavage was 0.

For the variant A30U U45A U100C, the self-cleavage was 1.08.

For U9C G58A U87A, the self-cleavage is 0.14.

As to U13C A57G U115C, the self-cleavage is 0.78. A2G U14C A64U U119G: the self-cleavage was determined as 0.46. The same measure for U15C U26G A65G U115G: 0.17; for U46C U115A A141G: 1.72; for U1C U73A U81G: 1.4.

On to G53U A92G U112C, for which the self-cleavage turned out to be 0.11. With U39G C103A A124U, the self-cleavage was 1.38. The same measure for U5C A42G U62A A78G A140U: 0.29. The same measure for U15C C38U A94G U115C A124G U132A A142G: 0.8. The same measure for U12G U62C U85C: 0.28. Consider U12C A43G U52A, for which the self-cleavage was found to be 1.7. Take A22G U62C A94U U96C: the self-cleavage was 0.09. The same measure for U13C U29C A79U: 2.45; for U9C U39C U85A U87A A121G: 0.16; for A22G U45C A50G: 2.45.

For U13C A67U A77U A138G, the self-cleavage was found to be 0.12. The same measure for A30G U47C A64U: 0.5. The same measure for U104C A138G A142G: 1.98; for A64U A65U A94G U130C: 0. The same measure for A77U U87G A117G C118G A140G: 0.15. As to U23C A30U C95U A107G C128U, the self-cleavage came out at 0.25. The same measure for U5A U12C A78G: 1.1; for U47G G114A A141G: 0.8.
